Data on 77 variants can be found in a collection of fitness landscapes (doi:10.1016/j.celrep.2020.107928).

The full ranking holds about 81,000 sequences; the median of “one-hybrid fitness for binding NBS DNA” is about -0.1, and the highest 2% start at about 0.36. This is one part of the list.

To fix the notation:
B1: Caulobacter ParB omega fusion; a variant is named by its letters at X, in order, B8GW30 (parent)
chain: MESVVVGEPGMSEGRRGLGRGLSALLGEVDAAPAQAPGEQLGGSREAPIEILQRNPDQPRRTFREEDLEDLSNSIREKGVLQPILVRPSPDTAGEYQIVAGERAWRAAQRAGLKTVPIMVRELDDLAVLEIGIIENVQRADLNVLEEALSYKVLMEKFERTQENIAQTIGKSXSHVANXMRLLXLPDEVQSYLVSGELTAXHARAIAAAADPVALAKQIIEGGLSVRETEALARKAPNLSAGKSKGGRPPRVKDTDTQALESDLSSVLGLDVSIDHRGSTGTLTITYATLEQLDDLCNRLTRGI

Variants of B1 are the subject of this experiment. Put plainly: one-hybrid fitness for binding NBS DNA (the Noc-binding site; scaled: cognate 1, non-cognate 0); higher = stronger binding. The following applies: with NBS DNA site. An outline of the steps:
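Fitness is the rescaled log change in variant-to-wild-type read ratio, measured by Illumina sequencing of plasmids before and after bacterial one-hybrid selection. The scale puts cognate at 1 and non-cognate at 0. Selection of Caulobacter ParB libraries, four specificity codons randomised, took place in E. coli USO with a HIS3 reporter, site 19 bp from the promoter, over 48 hours at 37°C on M9-minus-histidine with 0.1 mM IPTG and 5 mM 3-AT.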
For DRQC, the “one-hybrid fitness for binding NBS DNA” value was not above 0.2.

As to ECNW, the “one-hybrid fitness for binding NBS DNA” value was not above 0.2.

As for MYQC, the “one-hybrid fitness for binding NBS DNA” value was not above 0.2.

With QNHS, the “one-hybrid fitness for binding NBS DNA” value is not above 0.2.

With AGVY, the “one-hybrid fitness for binding NBS DNA” value was not above 0.2.

For RYSD, the “one-hybrid fitness for binding NBS DNA” value is not above 0.2.

Turning to VRAR, the “one-hybrid fitness for binding NBS DNA” value stood at 0.279.

For HELP, the “one-hybrid fitness for binding NBS DNA” value is not above 0.2.

For PFTT, the “one-hybrid fitness for binding NBS DNA” value is not above 0.2.

For the variant KSML, the “one-hybrid fitness for binding NBS DNA” value was not above 0.2.

For the variant AQLV, the “one-hybrid fitness for binding NBS DNA” value is not above 0.2.

Regarding AGDC, the “one-hybrid fitness for binding NBS DNA” value is not above 0.2.

STTQ: the “one-hybrid fitness for binding NBS DNA” value was not above 0.2.

SMTG: the “one-hybrid fitness for binding NBS DNA” value is not above 0.2.

For the variant YWNR, the “one-hybrid fitness for binding NBS DNA” value is not above 0.2.

Consider PVLT, for which the “one-hybrid fitness for binding NBS DNA” value is not above 0.2.

Regarding SNES, the “one-hybrid fitness for binding NBS DNA” value was not above 0.2.

For the variant RKLW, the “one-hybrid fitness for binding NBS DNA” value is not above 0.2.

With SDAT, the “one-hybrid fitness for binding NBS DNA” value is not above 0.2.

For CLGK, the “one-hybrid fitness for binding NBS DNA” value was not above 0.2.

NPGL: the “one-hybrid fitness for binding NBS DNA” value was not above 0.2.

Consider PSDR, for which the “one-hybrid fitness for binding NBS DNA” value was not above 0.2.

In the case of EMMK, the “one-hybrid fitness for binding NBS DNA” value is 0.405.

Take RGIR: the “one-hybrid fitness for binding NBS DNA” value was not above 0.2.

MQPL: the “one-hybrid fitness for binding NBS DNA” value was not above 0.2.

In the case of LSAC, the “one-hybrid fitness for binding NBS DNA” value was not above 0.2.

Take QHDG: the “one-hybrid fitness for binding NBS DNA” value was not above 0.2.

With VPFM, the “one-hybrid fitness for binding NBS DNA” value is not above 0.2.

Regarding DTDG, the “one-hybrid fitness for binding NBS DNA” value was not above 0.2.

With CECT, the “one-hybrid fitness for binding NBS DNA” value was not above 0.2.

Take TTRY: the “one-hybrid fitness for binding NBS DNA” value was not above 0.2.

As to QDKG, the “one-hybrid fitness for binding NBS DNA” value is not above 0.2.

For TKPS, the “one-hybrid fitness for binding NBS DNA” value is not above 0.2.

DAVT: the “one-hybrid fitness for binding NBS DNA” value is not above 0.2.

VMPC: the “one-hybrid fitness for binding NBS DNA” value was not above 0.2.

Turning to SSNY, the “one-hybrid fitness for binding NBS DNA” value was not above 0.2.

For ITKK, the “one-hybrid fitness for binding NBS DNA” value is not above 0.2.

For DKPY, the “one-hybrid fitness for binding NBS DNA” value was not above 0.2.

For PLVA, the “one-hybrid fitness for binding NBS DNA” value is not above 0.2.

For RLSK, the “one-hybrid fitness for binding NBS DNA” value is not above 0.2.

For PVTT, the “one-hybrid fitness for binding NBS DNA” value is not above 0.2.

On to LYDF, for which the “one-hybrid fitness for binding NBS DNA” value was not above 0.2.

For HVFP, the “one-hybrid fitness for binding NBS DNA” value is not above 0.2.

Regarding RFIM, the “one-hybrid fitness for binding NBS DNA” value was not above 0.2.

With THSD, the “one-hybrid fitness for binding NBS DNA” value was not above 0.2.

Consider GLSD, for which the “one-hybrid fitness for binding NBS DNA” value was not above 0.2.

As for SSRR, the “one-hybrid fitness for binding NBS DNA” value is not above 0.2.

In the case of YTKC, the “one-hybrid fitness for binding NBS DNA” value was not above 0.2.

On to MRLL, for which the “one-hybrid fitness for binding NBS DNA” value is not above 0.2.

In the case of NTIS, the “one-hybrid fitness for binding NBS DNA” value was not above 0.2.

For the variant VAGS, the “one-hybrid fitness for binding NBS DNA” value is not above 0.2.

For the variant KWVR, the “one-hybrid fitness for binding NBS DNA” value was not above 0.2.

In the case of TKER, the “one-hybrid fitness for binding NBS DNA” value is not above 0.2.

Take TCWC: the “one-hybrid fitness for binding NBS DNA” value is not above 0.2.

Consider LVWC, for which the “one-hybrid fitness for binding NBS DNA” value is not above 0.2.

QRPV: the “one-hybrid fitness for binding NBS DNA” value was not above 0.2.

In the case of SDPS, the “one-hybrid fitness for binding NBS DNA” value is not above 0.2.

With TDMG, the “one-hybrid fitness for binding NBS DNA” value is not above 0.2.

For QWNG, the “one-hybrid fitness for binding NBS DNA” value was not above 0.2.

Consider KMGN, for which the “one-hybrid fitness for binding NBS DNA” value is not above 0.2.

With YSCP, the “one-hybrid fitness for binding NBS DNA” value is not above 0.2.

In the case of QSYV, the “one-hybrid fitness for binding NBS DNA” value is not above 0.2.

Turning to LNLI, the “one-hybrid fitness for binding NBS DNA” value is not above 0.2.

In the case of QWMD, the “one-hybrid fitness for binding NBS DNA” value was not above 0.2.

As to KVRH, the “one-hybrid fitness for binding NBS DNA” value is not above 0.2.

Regarding RTDC, the “one-hybrid fitness for binding NBS DNA” value is not above 0.2.

Consider IRET, for which the “one-hybrid fitness for binding NBS DNA” value is not above 0.2.

As for VTDC, the “one-hybrid fitness for binding NBS DNA” value was not above 0.2.

In the case of TPNK, the “one-hybrid fitness for binding NBS DNA” value was not above 0.2.

With TIHK, the “one-hybrid fitness for binding NBS DNA” value is not above 0.2.

Consider VTHV, for which the “one-hybrid fitness for binding NBS DNA” value is not above 0.2.

Regarding AGAI, the “one-hybrid fitness for binding NBS DNA” value is not above 0.2.

As to IHIL, the “one-hybrid fitness for binding NBS DNA” value was not above 0.2.

Take RALY: the “one-hybrid fitness for binding NBS DNA” value is not above 0.2.

TWTK: the “one-hybrid fitness for binding NBS DNA” value was not above 0.2.

With AAKV, the “one-hybrid fitness for binding NBS DNA” value was not above 0.2.

As to SGFH, the “one-hybrid fitness for binding NBS DNA” value is not above 0.2.
